The other results are listed elsewhere or left out. Further columns of the screen follow, without active or inactive calls.
Tests used:
Experiment in all cases: Primary Screen for Target Class Profiling of Small Molecule Inhibitors of Methyltransferases
[1] = target: Glycine N-methyltransferase (Homo sapiens) (UniProt Q14749); details: purified enzyme, MTase-Glo SAH luminescence; measured here: GNMT inhibition; at 40 µM; stronger effect = lower value
Procedure, shortened: (§1)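 Each enzyme was reacted with SAM and its substrate, with compounds tested once at 40 uM; SAH formed was read by MTase-Glo luminescence.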

[2] = target: Guanidinoacetate N-methyltransferase (Homo sapiens) (UniProt Q14353); details: purified enzyme, MTase-Glo SAH luminescence; measured here: GAMT inhibition; at 40 µM; stronger effect = lower value
Procedure, shortened: as §1

[3] = target: Histamine N-methyltransferase (Homo sapiens) (UniProt P50135); details: purified enzyme, MTase-Glo SAH luminescence; measured here: HNMT inhibition; at 40 µM; stronger effect = lower value
Procedure, shortened: as §1

[4] = target: Nicotinamide N-methyltransferase (Homo sapiens) (UniProt P40261); details: purified enzyme, MTase-Glo SAH luminescence; measured here: NNMT inhibition; at 40 µM; stronger effect = lower value
Procedure, shortened: as §1

[5] = target: Phenylethanolamine N-methyltransferase (Homo sapiens) (UniProt P11086); details: purified enzyme, MTase-Glo SAH luminescence; measured here: PNMT inhibition; at 40 µM; stronger effect = lower value
Procedure, shortened: as §1
% is scaled to controls: 0 for no effect and ±100 for the full control effect.

Row | SMILES | activity change, negative = inhibition [1] | activity change, negative = inhibition [2] | activity change, negative = inhibition [3] | activity change, negative = inhibition [4] | activity change, negative = inhibition [5]
1 | COc1ccccc1-c1[nH]nc2ncc(C(=O)N3C[C@@H](C)O[C@@H](C)C3)nc12 | -32.1% | -24.2% | -43.3% | -27.2% | -20.1%
2 | COC(=O)CC[C@@H](C)[C@H]1CC[C@H]2[C@@H]3CC(=O)[C@H]4C[C@H](OC(C)=O)CC[C@]4(C)[C@H]3CC[C@]12C | 1.79% | 0.796% | 7.5% | -9.28% | 1.76%
3 | COc1cccc(CN2C(=O)c3cc4occc4n3CC2(C)C(=O)NC2CCCCCC2)c1OC (stereo not given) | 3.58% | 0% | 4.25% | -2.53% | -1.72%
4 | Cc1ccccc1Cn1nc2n(Cc3ccccc3)c(=O)c3ccccc3n2c1=O | -3.48% | -1.15% | 1.62% | -8.36% | -3.95%
5 | COc1ccccc1-c1ccc(C(=O)N2CCC(NC(=O)Cc3ccc(F)cc3)CC2)cc1 | -8.19% | -6.12% | -2.48% | -12.1% | -9.39%
6 | O=c1c2ccccc2n2c(SCc3ccc(F)cc3)nnc2n1Cc1ccccc1 | 7.68% | 0% | 4.12% | 3.64% | 5.53%
7 | O=C(NCC1CN(Cc2cccc(O)c2)CC12CN(c1ccccc1)C2)c1ccccc1 (stereo not given) | -11.9% | -11.6% | -28.5% | -14.7% | -11.1%
8 | O=C(/C=C/c1ccc(O)cc1)OC1[C@H](O)CC(O)(C(=O)O)C[C@H]1O (stereo not given in full) | -1.68% | -19.1% | -4.15% | -29.6% | -8.41%
9 | CC(=O)C=C=C1C(C)(C)CC(O[C@@H]2O[C@H](CO)[C@@H](O)[C@H](O)[C@H]2O)CC1(C)O (stereo not given in full) | 0.333% | 3.78% | 4.81% | -7.17% | -2.14%
10 | CCNC(=O)c1noc(-c2cc(C(C)C)c(O)cc2O)c1-c1ccc(CN2CCOCC2)cc1 | -5.86% | -1.37% | -4.24% | -14.5% | -4.85%
11 | C=C1CC/C=C(/CO)C(=O)C[C@@H]2[C@@H]1C[C@@]2(C)COC(C)=O | 1.86% | 6.92% | 6.41% | -9.13% | 1.02%
12 | COc1ccc(CC2CN(Cc3cccc(-n4cccn4)c3)CCO2)cc1 (stereo not given) | -2.47% | 1.03% | 1.64% | -1.13% | -16%
13 | CC1CCC(NC(=O)C2(C)Cn3c(ccc3-c3ccco3)C(=O)N2CCc2ccc(Cl)cc2)CC1 (stereo not given) | -2.86% | 4.93% | -0.275% | 0.556% | -1.46%
14 | COc1ccccc1CCC(=O)N1c2ccccc2CC1c1nc(C2CC2)no1 (stereo not given) | -1.66% | -1.28% | 2.35% | -7.7% | -2.61%
15 | COc1ccc2cc3n(c2c1)CC(C)(C(=O)NCC1CCCO1)N(Cc1ccccc1Cl)C3=O (stereo not given) | 2.71% | 0% | 5.87% | 2.91% | -1.42%
16 | CCCN1C(=O)c2c(-n3cccc3)c3cc(C)ccc3n2CC1(C)C(=O)NCCC(C)C (stereo not given) | -5.48% | 2.86% | -0.503% | -21.5% | -2.48%
17 | Cc1ccc(-c2c(C(=O)CCl)n(CCCO)c3ncnc(N)c23)cc1 | -31.2% | -32.6% | -5.1% | -42.3% | -16.8%
18 | CCCn1c(=O)c2ccc(C(=O)NC(C)C)cc2n2c(=O)n(CC(=O)Nc3ccccc3CC)nc12 | 4.48% | 0.111% | 0.408% | -5.1% | -0.881%
19 | Cn1cc(CN2C[C@H](C(=O)Nc3ccn(C)n3)C[C@@H]2c2cccc(C(F)(F)F)c2)cn1 | -1.88% | 3.55% | 2.99% | -7.03% | 17.4%

Row | SMILES | activity change, negative = inhibition [1] | activity change, negative = inhibition [2] | activity change, negative = inhibition [3] | activity change, negative = inhibition [4] | activity change, negative = inhibition [5]
20 | COc1ccc(NC(=O)N2CCn3cccc3C2C)cc1OC (stereo not given) | -13.6% | 1.16% | -13.8% | -14.3% | -12.1%
21 | O=C(O)Cc1cccn1-c1ccc(Cl)cc1 | -4.55% | -4.29% | -0.602% | -6.37% | -2.08%
22 | CCN(CC)Cc1cnc2c(C(=O)NC3(C(N)=O)CCCC3)cnn2c1 | -4.57% | -2.02% | -2.5% | -4.04% | -1.55%
23 | CC1(C)C(=O)N(Cc2ccccc2F)[C@H]2CN(C3CCOCC3)C[C@H]2[S+]1(=O)[O-] | 0.243% | -1.49% | 2.06% | -0.374% | -2.57%
24 | FC(F)(F)c1cccc(C2=NOC3(CCN(Cc4ccccc4)CC3)C2)c1 | -7.15% | -6.59% | -9.92% | -18.9% | -8.58%
25 | COc1ccc(CN2CCC([C@@H]3CNC[C@H]3CO)CC2)c(Cl)c1OC | -4.89% | 0.321% | -8.8% | 0.004% | -1.71%
26 | CC(=O)OC[C@@]12C(=O)C[C@@H](C)[C@]3(C[C@@H](c4ccoc4)OC3=O)[C@H]1CC[C@H](OC(C)=O)[C@]21CO1 | -2.39% | 3.6% | 0.531% | -8.71% | 3.29%
27 | CC(C)Cn1c(=O)c2cc(F)ccc2n2c(SCC(=O)Nc3ccc(F)cc3)nnc12 | 1.61% | 0% | 4.49% | -4.81% | 4.21%
28 | CCCn1c(=O)c2ccc(Cl)cc2n2c(=O)n(CC(=O)Nc3ccc4c(c3)OCCO4)nc12 | -4.49% | -6.33% | 3.88% | -8.86% | -4.95%
29 | CC(C)Cn1c(=O)c2ccc(C(=O)NC3CCCC3)cc2n2c(SCC(=O)NC(C)(C)C)nnc12 | 0.75% | 3.89% | 5.99% | -6.67% | -0.132%
30 | CC(C)Cn1c(=O)c2ccc(C(=O)NC(C)C)cc2n2c(=O)n(Cc3ccc(F)cc3)nc12 | 1.36% | -1.08% | -1.87% | -2.12% | -3.85%
31 | COC1CN(c2cccc(F)c2)C12CCN(C(=O)CC1CCCCC1)CC2 (stereo not given) | -11.1% | -5.32% | -3.8% | -22.9% | -8.16%
32 | Cn1c(=O)c2ccc(C(=O)NC3CCCC3)cc2n2c(=O)n(CC(=O)Nc3ccccc3Cl)nc12 | 6% | 4.97% | 5.29% | -1.82% | 2.17%
33 | CCc1noc([C@@H]2CC(F)(F)CN2C(=O)CCn2cc(C)cn2)n1 | -0.746% | -1.83% | -0.136% | -3.08% | -3.97%
34 | CN1C(=O)c2cc(C(=O)NCc3ccc(F)cc3)nn2CC1(C)C(=O)NCc1ccccc1 (stereo not given) | -2.13% | -3.01% | 1.1% | -7.14% | -5.63%
35 | CN1CCc2cc(NC(=O)Nc3cccnc3)ccc21 | -21.9% | 2.49% | -6.18% | -7.41% | -4.48%
36 | COc1cc(Cl)c(NC(=O)CN(C)S(=O)(=O)c2ccc3[nH]c4c(c3c2)CCCC4)c(OC)c1 | 5.43% | 0.623% | 3.36% | 7.42% | 2.54%
37 | CCCn1c(=O)c2ccc(C(=O)NC(C)CC)cc2n2c(SCC(=O)Nc3cc(C)cc(C)c3)nnc12 (stereo not given) | 3.99% | 0% | 5.37% | 6.6% | 4.95%
38 | CC(C)CCn1c(=O)c2ccccc2n2c(=O)n(CC(=O)Nc3cccc(Cl)c3)nc12 | 0.638% | 0% | 5.36% | -5.59% | 0.829%
